In the RNAGym collection of RNA variant scans (doi:10.1093/nar/gkz1192) one finds self-cleavage data, which are given here for 34 variants.

The labels stand for the following.
B1: CPEB3 Ribozyme (parent)
chain: UAACAGGGGGCCACAGCAGAAGCGUUCACGUCGCAGCCCCUGUCAGAUUCUGGUGAAUCUGCGAAUUCUGCUGUAUAUCUC

Read counts are not given, so values of variants with three or more changes are uncertain.

This data set covers variants of B1. As to the kind of experiment: self-cleavage, relative activity (ratio to wild type); higher = more cleavage; in vitro, sequencing. In short, it runs like this: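 CPEB3 self-cleaving ribozyme mutant libraries were made by rounds of error-prone PCR, barcoded, and transcribed in vitro with T7 RNA polymerase for 5 hours at 37°C. Cleavage occurred during transcription and a 15 min DNase I step before EDTA stop. RNAs were reverse transcribed with template switching and Illumina-sequenced, with DNA sequencing mapping barcodes to variants. Relative activity is the variant's cleaved/total read fraction divided by wild type's (minimum 5 reads), averaged across three batches.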
As for UAACAGAGGGCCACAGCAGGAGCGCUCACGCCGCAGCCCCUGUCAGAUUCUGGAGAAUCUGCGAAUUCUGCUGUAUGUCUC [G7A A20G U25C U31C U54A A77G], the self-cleavage was 0.12. For UAACAGAGGGCCACAGCAGUAGCGUUCAUGUCGCAGCCCCUGUCAGAUUCUGGUGAGUCUGCGAAUACUGCUGUAUAUCUC [G7A A20U C29U A57G U67A] the value was 0.04; for UAACAUGGGGCCACAGCAGAGGCGUUCACGUCGCAGCCCCUGUCAGAUUCUGGUGAAUCUGCGAAUUCUGCCGUAUAUCUC [G6U A21G U72C], 0.26; for UAACAUGGGGCCACAGCAGAAGCGUUCACGUCGCAGCCCCUGUCAGAUUCUGGUGGAUCUGCGAAUUCUGCUGUAUACCUC [G6U A56G U78C], 0.21. As for UAACAGAGGGCCACGGCAGAAGCGUUCACGUCGCGACCCCUGUCAGAUUCAGGUGAAUCUGCGAAUUCUGCUGUAUAUCUC [G7A A15G A35G G36A U51A], the self-cleavage turned out to be 0.09. UAACAUGGGGCCACAGUAGAGGCGUUCACGUCGCAGCCCCUGUCAGAUUAUGGUGAAUCUGCGAAUUCUGCUGUAUAUCUC [G6U C17U A21G C50A]: the self-cleavage turned out to be 0.34. With UAACAUGGGGCCAUAGCAGAAGCGUUCACGUCGCAGCCCCUGCCGGAUUCUGGUGGAUCUGCGAAUUCCGCUAUAUAUCUC [G6U C14U U43C A45G A56G U69C G73A], the self-cleavage worked out at 0.04. In the case of UAACAUGGAGCCUCAGCAGAGGCGUUCACGUCGCAGCCCCUGUCGGAUUCUGGUGAAUCUGCGGAUUCUGCUGUAUAUCUC [G6U G9A A13U A21G A45G A64G], the self-cleavage stood at 0.05.

Turning to UAACAUGGGGCCACAGCAGAAGCGUUCACGUCGCAGCCCCUGUCAGAUUCUGGCGAAUCUGCGGAUUCUGCUGUGUAUCUC [G6U U54C A64G A75G], the self-cleavage was found to be 0.13.

As for UAACAUGGGGCCACAGCAGAAGCGUUCACGUCGCAGCCCCUGCCAGAUUCUCGAGGAUCUGCGAAUUCUGCUGUAUAUCUC [G6U U43C G52C U54A A56G], the self-cleavage came to 0.24.

With UAACAGAGGGCCACAGCUGAAGCUUUCACGUCGCAGCCCCUGUCAGAUUCUGGUGAAACUGCGGAUUCUGCUGUAUAUCUC [G7A A18U G24U U58A A64G], the self-cleavage was 0.05. For UAACAUGAGGCCACAGCAGAAGCAUUCACGUCGCAGCCCCUGUCAGAUUCUGGUGAGUCUGCGAAUUCAGCCGUAUAUCCC [G6U G8A G24A A57G U69A U72C U80C] the value was 0.08; for UAACAUGGGGCCACAGCAGAAGCGCUCGCGUCGCAGCCCCUGUCAGAUUCUGGAGGAUCUGCGAAUUCUGCUGUAUAUCUC [G6U U25C A28G U54A A56G], 0.07. For UAACAUGGGGCCACAGCAGAAGCGUUCACGUCGCAGCCCCUGUCAGAUUCUGGCGAAUCCGCGAAUUCUGCUGUAUAUCUC [G6U U54C U60C] the value was 0.05; for UAACAGAGGGCCGCAGCAGAAGAGUUCAUGUCGCAGCCCCUGUCAGAUUCUGGUGAAUCUGCGAAUUCUGCUGUAUAUCUC [G7A A13G C23A C29U], 0.11.

Turning to UAACAUGGGGCCACAGCAGAAGCGUUCGCGUCGCAGCCCCUGUCAGAUUCUGGUGAAUCUGCGAAUUCUACUGUAAAUCUC [G6U A28G G70A U76A], the self-cleavage was determined as 0.12.

In the case of UAACAGAGGGCCACAGCGGAAGCGUUCGCGUCACAGCCCCUGUCAGAUUCUGGUGAAUCCGCGAAUUCUGCUGCAUAUCUC [G7A A18G A28G G33A U60C U74C], the self-cleavage was found to be 0.14. In the case of UAACAGAGGGCCACAGCGGAAGCGUUCACGACGCAGCCCCUGUCAGAUUCUGGUGAAUCUGCGAAUUCUGCUGUAUAUCUC [G7A A18G U31A] it was 0.06; in that of UAACAGAGGGCCGCAGCAGAAGCGUUCACGUCGCAGCCCCUGUCUGAUUCUGGUGAAUCUGCGAAUUCUGCUGUAUAUCUC [G7A A13G A45U], 0.27. With UAACAGAGGGCCUCAGCAGAAGCGUUCACGUCGCAGCCCCUGUCAGAUUCUGGUGAAUCUGCGAAUUCUGCUGAAUAUCUC [G7A A13U U74A], the self-cleavage amounted to 0.08. For UAACAGAGGGCCACAGCGGAGGCGUUCACGUCGCAGCCCCUGUCAGAUUCUGGUGAAUCUGCGAGUUCAGCUGUAUAUCUC [G7A A18G A21G A65G U69A] the value was 0.2; for UAACAGAGGGCCACAGCGGAAGCGUUCACGUCGCAGCCCCUGUCAGAUUCUGGUGAAUCUGCGAGUUCUGCUGUAUAUCUC [G7A A18G A65G], 0.16; for UAACAUGUGGCCACAGCAGAAGCGUUCACGUCGCAGCCCCUAUCUGAUUCUGGUGUAUCUGCGUAUUCUGCUGUAUAUCUC [G6U G8U G42A A45U A56U A64U], 0.1. In the case of UAACAUGGGGCCACAGCAGAAGCAUCCACGUCGCAGCCCCUGUCGGAUUCUGGUGAAUCUGCGAAUUCUGCUGUAUAUCCC [G6U G24A U26C A45G U80C] it was 0.1; in that of UAACAUGGGGCCACAGCAGAAGCGUUCAAGUCGCAGCCCCUGACAGAUUCUGGUGAAUCUGCGGAUUCUGCUGCAUAACUC [G6U C29A U43A A64G U74C U78A], 0.37. Consider UAACAUGGGGCCACAGCAGAAGCGUCCACGUCGCAGCCCCCGUCAGAUACAGGUGAAUCUGCGAAUUCUGCCGUAUAUCUC [G6U U26C U41C U49A U51A U72C], for which the self-cleavage amounted to 0.29. In the case of UAACAUGGGGCCACAACAGAGGCGUUCACGUCGCAGCCCCUGUCAGAUUCUGGUGAAUCUGCGAAUUCUGCUGUAUAUCUC [G6U G16A A21G] it was 0.36; in that of UAACAGAGGGCCACGGCAGAAGCGUUCACGUCGCAGCCCCUGUCAGAUCCUGGUGAAUCUGCUAAUUCUGCUGUAUAUCUC [G7A A15G U49C G63U], 0.04; in that of UAACAUGGAGCCACAGCAGAAGCGUUCACGUCGCAGCCCCUGUCUGAUUCUGGUGAAUCUGCGAAUUCUGCUGUAUAUCCC [G6U G9A A45U U80C], 0.26. Regarding UAACAUGGGGCCACAGCUGAAGCGUUCACGUUGCAGCCCCUGUCAGAUUCUGGUGAAUCUGCGAAUUCUGCUGUAUAUCUC [G6U A18U C32U], the self-cleavage stood at 0.19.

For UAACAUGGGGCCACAGCAGAAGCGUUCACGUCGCGGCCCCAGUCAGAUUCUGGUGGAUCUGCGAAUUCUGCUGUAUAUCUC [G6U A35G U41A A56G], the self-cleavage came to 0.33. In the case of UAACAGAGGGCCUCGGCAGAAGCGCUCACGUCGCAGCCCCUGUCAGAUUCUGGUGAGUCUGCGAAUUCUGCUGUAUACCAC [G7A A13U A15G U25C A57G U78C U80A] it was 0.14; in that of UAACAUGAGGCCACAGCGGAAGCGUUCACGUCGCAGCCCCUGUCGGGUUCUGGUGAAUCUGCGAAUUCUGCUGUAUAUCUC [G6U G8A A18G A45G A47G], 0.2; in that of UAACAUGGGGCCACAGCAGAAGCGUUCACGUCACAGCCCCUGUCAGAUUCUGGUGAAUCUGCGGAUUCUGCUGUCUAUCUC [G6U G33A A64G A75C], 0.05.
